Test results taken from patent publication US20190169310A1 (Amgen, published 2019).

Biological target: T1, 1-27 CD3-Fc (human)
T1 construct: assigned to this molecule; also called 1-27 CD3ε-Fc; 27 aa huCD3E
Assay: ELISA, periplasmic scFv on captured 1-27 CD3-Fc

B1: H1E HLP (scFv)
scFv: EVQLLESGGGLEQPGGSLKLSCAASGFTFNSYAMNWVRQAPGKGLEWVARIRSKYNNYATYYADSVKGRFTISRDDSKNTAYLQMNNLKTEDTAVYYCVRHGNFGNSYLSFWAYWGQGTLVTVSSGGGGSGGGGSGGGGSELVVTQEPSLTVSPGGTVTLT[letters of about 80 residues not shown]FGGGTKLTVL
notes: crude periplasmic preparation; also called VH-VL-P of H1E
binding result: binds
